Results reported in the supplement of paper PMC11876631.
± gives the standard deviation of the averaged measurements. Laboratory Escherichia coli strains with one amino-acid change in an essential protein, pooled on minimal glucose agar with carbenicillin or gentamicin at twice the control MIC (plus kanamycin and chloramphenicol for the plasmids), 48 h. Fold change of barcode share against drug-free plates; higher = less susceptible. Active = above 20 in both replicates (the paper's putatively resistant). '<' = one read or none on drug, '>' = one read or none on a drug-free plate. Shares are relative, so most strains fall below 1 when a few take over. Listed are strains with at least 15 reads on both drug-free plates, and hits; most hits rest on fewer reference reads. Replicate rank correlation about 0.5. Edits are read from barcodes.

B1: cysH; a variant is named by its letters at X, in order (parent)
chain: MSKLDLNALNELPKVDRILALAETNAELEKLDAEGRVAWALDNLPGEYVLSSSFGIQAAVSXHLXNQIRPDIPVILTDTGYLFPETYRFIDELTDKLKLNLKVYRATESAAWQEARYGKLWEQGVEGIEKYNDINKVEPMNRALKELNAQTWFAGLRREQSGSRANLPVLAIQRGVFKVLPIIDWDNRTIYQYLQKHGLKYHPLWDEGYLSVGDTHTTRKWEPGMAEEETRFFGLKRECGLHEG
B2: secE; a variant is named by its letters at X, in order (parent)
chain: MSANTEAQGSGRGLEAMKWXXVXAXLLVAIVGNYLYRDIMLPLRALAVXILIAAAGGVALLTTKGKATVAFAREARTEVRKVIWPTRQETLHTTLIVAAVTAVMSLILWGLDGILVRLVSFITGLRF
B3: bioB; numbered along this chain (parent)
chain: MAHRPRWTLSQVTELFEKPLLDLLFEAQQVHRQHFDPRQVQVSTLLSIKTGACPEDCKYCPQSSRYKTGLEAERLMEVEQVLESARKAKAAGSTRFCMGAAWKNPHERDMPYLEQMVQGVKAMGLEACMTLGTLSESQAQRLANAGLDYYNHNLDTSPEFYGNIITTRTYQERLDTLEKVRDAGIKVCSGGIVGLGETVKDRAGLLLQLANLPTPPESVPINMLVKVKGTPLADNDDVDAFDFIRTIAVARIMMPTSYVRLSAGREQMNEQTQAMCFMAGANSIFYGCKLLTTPNPEEDKDLQLFRKLGLNPQQTAVLAGDNEQQQRLEQALMTPDTDEYYNAAAL

Variants of: B1
Experiment: barcode share on antibiotic plates over drug-free plates; higher = less susceptible
Conditions: with Escherichia coli (laboratory strain); antibiotic: carbenicillin; 2× MIC (3.1 µg/mL)
Method: (§1)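 A pool of E. coli strains, each edited to carry one amino-acid change in an essential protein, was grown for 48 h on minimal glucose agar with or without antibiotic; strain barcodes were sequenced; mean of two replicates.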

| Variant | fold change of barcode share |
| --- | --- |
| AV | 0.406 ± 0.047 |
| DV | 1.28 ± 1.1 |
| WV | 0.467 ± 0.011 |
| LV L170P | 0.476 ± 0.011 |
| LV L170Q | 0.488 ± 0.14 |
| LV L170A | 0.419 ± 0.088 |
| LV I75W | 1.24 ± 0.44 |
| LV I75A | 0.382 ± 0.038 |
| QV | 0.429 ± 0.026 |
| LA | 0.355 ± 0.17 |
| LQ | 1.6 ± 0.8 |
| LD | 0.477 ± 0.071 |
| LW | 0.709 ± 0.24 |
| LP | 0.628 ± 0.053 |
| LV V169W | 0.527 ± 0.077 |
| LV V169P | 0.513 ± 0.12 |
| LV V169A | 0.453 ± 0.068 |
| PV | 0.891 ± 0.29 |
| LV L93Q | 0.359 ± 0.017 |
| LV L93W | 0.356 ± 0.032 |
| LV L93A | 0.446 ± 0.067 |
| LV V74A | 0.462 ± 0.092 |

Same assay, conditions: with Escherichia coli (laboratory strain); antibiotic: gentamicin; 2× MIC (MIC 0.45 µg/mL)

| Variant | fold change of barcode share |
| --- | --- |
| AV | 0.0186 ± 0.0096 |
| DV | 0.00484 ± 0.0027 |
| WV | 0.00764 ± 0.0069 |
| LV L170P | < 0.00759 |
| LV L170Q | 0.00946 ± 0.0059 |
| LV L170A | 0.00604 ± 0.0055 |
| LV I75A | 0.0182 ± 0.0078 |
| QV | 0.00514 ± 0.0019 |
| LA | 0.0048 ± 0.00084 |
| LQ | 0.0259 ± 0.005 |
| LD | 0.01547 ± 3.7e-05 |
| LW | 0.0278 ± 0.012 |
| LP | 0.0274 ± 0.0011 |
| LV V169W | 0.016 ± 0.011 |
| LV V169P | 0.00887 ± 0.0096 |
| LV V169A | 0.00944 ± 0.0092 |
| PV | 0.0224 ± 0.028 |
| LV L93Q | 0.0102 ± 0.0085 |
| LV L93W | < 0.00674 |
| LV L93A | 0.00633 ± 0.0047 |
| LV V74A | < 0.0123 |

Variants of: B2
Experiment: as above
Conditions: with Escherichia coli (laboratory strain); antibiotic: gentamicin; 2× MIC (MIC 0.45 µg/mL)
Method: as §1

| Variant | fold change of barcode share |
| --- | --- |
| VVALV | 0.00722 ± 0.0041 |
| VVQLV | 0.00311 ± 0.00074 |
| VDVLV | 0.00327 ± 0.0011 |
| VPVLV | 0.00352 ± 0.0013 |
| PVVLV | 0.00617 ± 0.0042 |
| VVPLV | 0.00313 ± 0.0019 |
| VVVAV | 0.0132 ± 0.016 |
| VVVLV V116P | < 0.018 |
| AVVLV | 0.0434 ± 0.054 |
| VVVQV | 0.00284 ± 0.0016 |
| VVVLP | < 0.00584 |
| VVVLD | 0.0149 ± 0.012 |
| VVVLA | 0.591 ± 0.26 |
| VVVLW | < 0.00904 |
| VVVLQ | < 0.00719 |
| DVVLV | 0.0028 ± 0.0006 |
| VVWLV | < 0.00738 |
| VVVWV | 0.235 ± 0.24 |
| VQVLV | 0.00877 ± 0.0083 |
| VAVLV | 0.00501 ± 0.0026 |
| VVVPV | 0.00603 ± 0.0055 |
| QVVLV | 0.00667 ± 0.0048 |
| VWVLV | 0.00419 ± 0.00089 |
| VVVDV | 0.00216 ± 0.0013 |
| WVVLV | 0.0021 ± 0.0016 |

Same assay, conditions: with Escherichia coli (laboratory strain); antibiotic: carbenicillin; 2× MIC (3.1 µg/mL)

| Variant | fold change of barcode share |
| --- | --- |
| VVQLV | 0.693 ± 0.075 |
| VDVLV | 0.318 ± 0.13 |
| VPVLV | 0.666 ± 0.17 |
| PVVLV | 0.65 ± 0.17 |
| VVPLV | 0.349 ± 0.1 |
| VVVAV | 0.25 ± 0.059 |
| VVVLV V116P | 0.305 ± 0.19 |
| AVVLV | 0.811 ± 0.19 |
| VVVQV | 0.318 ± 0.13 |
| VVVLP | 0.244 ± 0.11 |
| VVVLD | 0.208 ± 0.041 |
| VVVLA | 0.174 ± 0.085 |
| VVVLW | 0.236 ± 0.034 |
| VVVLQ | 0.261 ± 0.027 |
| DVVLV | 0.809 ± 0.074 |
| VVWLV | 0.328 ± 0.1 |
| VVVWV | 0.357 ± 0.13 |
| VQVLV | 0.479 ± 0.033 |
| VAVLV | 0.574 ± 0.2 |
| VVVPV | 0.257 ± 0.1 |
| QVVLV | 0.444 ± 0.02 |
| VWVLV | 0.469 ± 0.081 |
| VVVDV | 0.301 ± 0.084 |
| WVVLV | 0.79 ± 0.16 |

Variants of: B3
Experiment: as above
Conditions: with Escherichia coli (laboratory strain); antibiotic: carbenicillin; 2× MIC (3.1 µg/mL)
Method: as §1

| Variant | fold change of barcode share |
| --- | --- |
| M98Q | 1.05 ± 0.11 |
| M98D | 1.44 ± 0.29 |
| M98P | 1.3 ± 0.27 |
| M98W | 1.2 ± 0.1 |
| M98A | 0.497 ± 0.073 |
| M116A | 0.625 ± 0.16 |
| V193Q | 0.61 ± 0.4 |
| V193A | 0.308 ± 0.15 |
| V193P | 0.519 ± 0.065 |
| V193W | 0.296 ± 0.051 |

Same assay, conditions: with Escherichia coli (laboratory strain); antibiotic: gentamicin; 2× MIC (MIC 0.45 µg/mL)

| Variant | fold change of barcode share |
| --- | --- |
| M98Q | 0.0118 ± 0.0041 |
| M98D | 0.0282 ± 0.0073 |
| M98P | 0.0277 ± 0.018 |
| M98W | 0.0359 ± 0.017 |
| M98A | 0.0159 ± 0.0016 |
| M116A | < 0.00825 |
| V193Q | 0.0194 ± 0.015 |
| V193P | < 0.0211 |
| V193W | 0.139 ± 0.15 |
